{"source": "patent US10759803B2", "about": "“Asparagine endopeptidase (AEP) inhibitors for managing cancer and compositions related thereto” (priority 2014, dated 2020)", "key": {"Cathepsin-S": {"target": "Cathepsin-S (Homo sapiens, UniProt P25774)", "sequence (P25774 115-331, species assumed)": "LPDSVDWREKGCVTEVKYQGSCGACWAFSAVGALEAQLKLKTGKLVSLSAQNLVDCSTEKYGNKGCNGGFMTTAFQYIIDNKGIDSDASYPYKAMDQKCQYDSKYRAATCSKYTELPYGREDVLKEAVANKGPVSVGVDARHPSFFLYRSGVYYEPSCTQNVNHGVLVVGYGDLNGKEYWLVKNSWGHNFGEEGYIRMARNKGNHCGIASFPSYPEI", "assay": "Specificity assay against Cathepsin-S", "format": "biochemical", "protocol": "(§1) Purified recombinant enzyme was incubated with various concentrations of inhibitor in appropriate assay buffers in the presence of increasing concentrations of inhibitor. The formation of fluorescent product was monitored in duplicate reactions and the data was fit to appropriate equations to calculate the IC50 values.\n(§2) To identify small-molecule inhibitors of AEP, a high-throughput screen was designed in conjunction with the Emory Chemical Biology Discovery Center. The screen incorporated mouse kidney lysates to assay a 54,384 compound library. […] Additional structural analysis and grouping allowed the compounds to be sorted into 8 distinct backbone families. […] The specificity of the compounds was also determined using four major cysteine proteases (FIG. 2)."}, "Cathepsin-L": {"target": "Cathepsin-L (Homo sapiens, UniProt P07711)", "sequence (P07711 114-333, species assumed)": "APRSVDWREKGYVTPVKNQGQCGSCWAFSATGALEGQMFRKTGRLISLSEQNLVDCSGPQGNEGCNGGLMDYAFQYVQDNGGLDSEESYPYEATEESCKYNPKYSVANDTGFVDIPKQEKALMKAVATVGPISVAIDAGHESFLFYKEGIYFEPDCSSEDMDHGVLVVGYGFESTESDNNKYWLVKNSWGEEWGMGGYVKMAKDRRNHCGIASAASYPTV", "assay": "Specificity assay against Cathepsin-L", "format": "biochemical", "settings": "one of the tested cysteine proteases"}, "Caspase-8": {"target": "Caspase-8 (Homo sapiens, UniProt Q14790)", "sequence (Q14790 217-374 limits assumed, species assumed)": "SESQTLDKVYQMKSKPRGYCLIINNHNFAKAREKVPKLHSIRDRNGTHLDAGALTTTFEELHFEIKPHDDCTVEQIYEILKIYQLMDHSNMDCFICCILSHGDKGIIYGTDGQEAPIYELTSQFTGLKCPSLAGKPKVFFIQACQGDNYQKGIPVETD", "sequence (Q14790 385-479 limits assumed, species assumed)": "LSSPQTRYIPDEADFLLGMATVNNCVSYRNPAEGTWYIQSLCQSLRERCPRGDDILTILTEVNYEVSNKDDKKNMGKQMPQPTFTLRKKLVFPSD", "assay": "Specificity assay against Caspase-8", "format": "biochemical", "settings": "one of the tested cysteine proteases", "protocol": "as §1, §2"}, "Caspase-3": {"target": "T1, Caspase-3 (Homo sapiens, UniProt P42574)", "T1 sequence (P42574 29-175 limits assumed)": "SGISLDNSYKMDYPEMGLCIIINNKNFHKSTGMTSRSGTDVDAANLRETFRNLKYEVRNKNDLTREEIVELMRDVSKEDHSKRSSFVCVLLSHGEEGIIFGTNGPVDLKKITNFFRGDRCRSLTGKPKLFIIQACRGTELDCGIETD", "T1 sequence (P42574 176-277 limits assumed)": "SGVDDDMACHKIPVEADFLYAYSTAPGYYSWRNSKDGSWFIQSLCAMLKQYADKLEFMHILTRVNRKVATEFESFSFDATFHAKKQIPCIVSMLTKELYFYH", "assay": "Specificity assay against Caspase-3", "format": "biochemical", "settings": "one of the tested cysteine proteases", "protocol": "as §1, §2"}, "AEP": {"target": "T2, AEP (Homo sapiens, UniProt Q99538)", "T2 construct": "tested with purified active AEP, IC50 values for the top 8 candidates were found", "T2 sequence (Q99538 18-323 limits assumed)": "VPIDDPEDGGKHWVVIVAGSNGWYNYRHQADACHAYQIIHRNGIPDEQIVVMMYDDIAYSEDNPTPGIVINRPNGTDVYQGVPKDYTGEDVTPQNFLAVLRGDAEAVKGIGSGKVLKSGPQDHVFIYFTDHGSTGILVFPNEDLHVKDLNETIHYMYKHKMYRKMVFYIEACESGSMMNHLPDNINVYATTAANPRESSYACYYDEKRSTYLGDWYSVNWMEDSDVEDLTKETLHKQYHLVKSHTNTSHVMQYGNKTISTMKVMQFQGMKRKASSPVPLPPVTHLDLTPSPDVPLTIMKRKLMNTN", "assay": "SAR analysis, residual AEP activity", "format": "biochemical", "settings": "50 nM purified active AEP, 5 μM substrate peptide", "source_text": "A. The structures and percentages of residual AEP activity of derivatives, in which substitutions were made to the nitrogen in the R7 position. B. The structures and percentages of residual AEP activity of the compound 38 derivatives, in which substitutions were made to the nitrogens at the R7 and R1 positions. C. The structures and percentages of residual AEP activity of the compound 38 derivatives, in which substitutions were made at the R7, R1 and R6 position in xanthine ring.\nIn an effort to improve the drug ability of the compound, structure-activity relationship studies were performed with various derivatives. Each compound was incubated with 50 nM purified, active AEP and 5 μM substrate peptide and the percentage of residual enzyme activity was calculated compared to a control reaction. […] Conversely, the observed alterations made to the thiol group of compound 38 had effects on its inhibitory activity (FIG. 9C)."}, "[1]": {"system": "endogenous MMP-2 cleavage", "assay": "Gelatin zymography, endogenous MMP-2 cleavage in MDA-MB-231 cells", "format": "cell-based, human", "settings": "MDA-MB-231 cells, 1, 2, 5 and 10 μM"}, "[2]": {"system": "MDA-MB-231 cells in the mammary fat pad of nude mice", "assay": "In vivo spontaneous metastasis assay (breast-to-lung)"}, "[3]": {"settings": "mouse, microsomes, 30 min"}, "[4]": {"settings": "human, microsomes, 0.5 h"}}, "note": "Like-named read-outs stand apart in the source and are kept apart here."}
{"smiles": "CN(C)c1ccc(N2C(=O)C=CC2=O)cc1", "note": "[Compound 22]", "values": [{"measurement": "IC50", "setting": "Cathepsin-S", "result": "> 100", "unit": "µM"}, {"measurement": "IC50", "setting": "Cathepsin-L", "result": "> 100", "unit": "µM"}, {"measurement": "IC50", "setting": "Caspase-8", "result": "> 100", "unit": "µM"}, {"measurement": "IC50", "setting": "Caspase-3", "result": "> 100", "unit": "µM"}]}
{"smiles": "Cn1c(=O)[nH]c(=O)c2c1nc(S)n2CC(O)COc1ccccc1", "note": "(stereo not shown) [Compound 38D-11]", "values": [{"measurement": "loss of activity relative to parent compound 38", "setting": "AEP", "result": "greater than a two-fold loss in activity"}]}
{"smiles": "CCn1c(=O)c2c(nc(S)n2C)n(C)c1=O", "note": "[Compound 38D-21]", "values": [{"measurement": "endogenous MMP-2 cleavage", "setting": "[1]", "result": "inhibited in a dose-dependent manner"}, {"measurement": "animals in which metastasis was observed", "setting": "[2]; 3 mg/kg", "result": "2/6"}, {"measurement": "number of metastatic lung nodules", "setting": "[2]; 3 mg/kg oral gavage, 42 days", "result": "significantly decreased"}, {"measurement": "percentage of mice with metastatic nodules on their lungs", "setting": "[2]; 3 mg/kg oral gavage, 42 days", "result": 33, "unit": "%"}, {"measurement": "animals in which metastasis was observed", "setting": "[2]; 10 mg/kg", "result": "1/6"}, {"measurement": "number of metastatic lung nodules", "setting": "[2]; 10 mg/kg oral gavage, 42 days", "result": "almost completely prevented lung metastasis"}, {"measurement": "percentage of mice with metastatic nodules on their lungs", "setting": "[2]; 10 mg/kg oral gavage, 42 days", "result": 17, "unit": "%"}, {"measurement": "complete blood count (CBC) vs vehicle", "setting": "[2]; 3 or 10 mg/kg, 42 days", "result": "no significant difference"}, {"measurement": "mammary tumor weight or volume vs control", "setting": "[2]; 3 or 10 mg/kg, 42 days", "result": "no significant difference"}, {"measurement": "size of the spleen", "setting": "[2]; 3 or 10 mg/kg, 42 days", "result": "slight increase"}, {"measurement": "toxicity by body weight", "setting": "[2]; 3 or 10 mg/kg, 42 days", "result": "no significant toxicity"}]}
{"smiles": "CC(=O)CC(c1ccccc1)c1c(O)c2ccccc2oc1=O", "note": "(stereo not shown) [Warfarin]", "values": [{"measurement": "Mean Remaining Parent (NADPH-free)", "setting": "[3]", "result": 100, "unit": "%"}, {"measurement": "Mean Remaining Parent (with NADPH)", "setting": "[3]", "result": 91, "unit": "%"}, {"measurement": "Mean Remaining Parent (with NADPH)", "setting": "[4]", "result": 96, "unit": "%"}]}
